Among the data in the RNAGym collection of RNA variant scans (doi:10.7554/elife.90254) are self-cleavage values, retold here.

B1: LINE1-full (parent)
chain: UACGUAGGUGGUUUUCCCCUGAUAGUGCUAAGGGGGCCUGGAAGUUUGGACUGGGCAGAGCUCAACACAGCGUGGCAAAGUGGCUGUGGCUAGACUGCCUCUCUGGAUUCCUCGUCACUCAGCAGGGCAUCUCUGAGAGAAAUGCC

Read counts are not given, so values of variants with three or more changes are uncertain.

Variants of B1 are the subject of the data set. Briefly: self-cleavage, relative activity (ratio to wild type); higher = more cleavage; in vitro, sequencing; the parent is a self-cleaving ribozyme.
For the variant UCCGUAGGUGGGUUUCCCCUGAUAGUGCUAAGGGGGCCUGGAAGUUUGGACUGGGCAGAGCUCAACACAGCGUGGCGAAGUGGCUGUGGCUAGACUGCCUCUCUGGAUUCCUCGUCACUCAGCAGGGCAUCUCUGAGAGAAAUGCC, the self-cleavage worked out at 2.51.

In the case of UGCGUAGGUGGUUUUCCCCUGAUAGUGCUAAGGGGGCCUGGAGGUUUGGACUGGGCAGAGCUCAACACAGCGUGGCAAAGUGGCUGUGGCUAGACUGCCUCUCUGGAUUCCUCGUCACUCAGCAGGGCACCUCUGAGAGAAAUGCC, the self-cleavage was 0.35.

For UGCGUAGGUGGUUUUCCCCUGUUAGUGCUAAGGGGGCCUGGAAGUUUGGACCGGGCAGAGCUCAACACAGCGUGGCAAAGUGGCUGUGGCUAGACUGCCUCUCUGGAUUCCUCGUCACUCAGCAGGGCAUCUCUGAGAGAAAUGCC, the self-cleavage was 0.77.

For the variant UGCGUAGGUGGUUUUCCCCUGAUAGUGCUUAGGGGGCCUGGAAGUUUGGACUGGGCAGAGCUCAGCACAGCGUGGCAAAGUGGGUGUGGCUAGACUGCCUCUCUGGAUUCCUCGUCACUCAGCAGGGCAUCUCUGGGAGAUAUGCC, the self-cleavage was determined as 0.33.

Turning to UGCGUAGGUGGUUUUCCCCUGAUAGUGCUAAGGGGGCCUGGAGGUUUGGACUGGGCAGAGCUCAACACAGCGUGGCAAAGUGGCUGUGGCUAGACUGCCUCUCUGGAUUCCUCGUCACUCGGCAGGGCAUCUCUGAGUGAAAUGCC, the self-cleavage was found to be 1.7.

Consider UGCGUAGGUGGUUUUCCCCUGAUAGUGCUAAGGGGGCCUGGAAGUUUGGACUGGGCGGAGCUCAACACAGCGUGGCGAAGUGGCUGUGGCUAGACUGCCUCUCUGGAUUCCUCGUCACUCAGCAGGGCAUCUCUGAGAGAUAUGCC, for which the self-cleavage turned out to be 1.77.

Take GACGUAGGUGGUUUUCCCCUGAUAGUGCUAAGGGGGCCUGGAAGUUUGGACUGGGCAGAGCUCAACACAGCGUGGCAAAGUGGCUGUGGCUAGACUGCCUCUCUGGAUACCUCGUCACUCAGCAGGGCACCUCUGAGAGAAAUGCC: the self-cleavage was 1.21.

For UCCGUAGGUGGUUUUCCCUUGAUAGUGCUAAGGGGGCCUGGUAGUUUGGACUGGGCAGAGCUAAACACAGCGUGGCAAAGUGGCUGUGGCUAGACUGCCUCUCUGGAUUCCUCGUCACCCAGCAGGGCAUCUCUGAGAGAAAUGCC, the self-cleavage is 0.11.

For UGCGUAGGUGGUUUUCCCCUGAUAGUGCUAUGGGGGCCUGGAAGUUUGGACUGGGCAGAGCUCAACACAGCGUGGCAAAGUGGCUGUGGCUAGACUGCCUCUCUGGAUUCCUCGUCAAUCAGCAGGGCAUCUCUGAGAGAAAUGCC, the self-cleavage is 1.08.

For the variant UGCGUAGGUGGUUUUCCCCUGAUAGUGCUAAGGGGGCCUGGAAGUUUGGACUGGGCAGCGCUCAACACAGCGUGGCAAAGUGGCUGUGGCUAGACUGCCUCUCUGGAUUCCUCGUCACUCAGCAGGGCAUCUCUGAGAGGAAUGCC, the self-cleavage was determined as 0.69.

UGCGUAGGUGGUUUUCCCCUGGUAGUGCUAAGGGGGCCUGGAGGUUUAGACUGGGCAGAGCUCAACACAGCGUGGCAAAGUGGCUGUGGCUAGACCGCCUCUCUGGAUUCCUCGUCACUCAGCAGGGCAUCUCUGAGAGAAAUGCC: the self-cleavage was determined as 0.33.

Consider UCCGUAGGUGGUUUUCCCCUGAUAGAGCUAAGGGGGCCUGGAAGUUUGGACUGGGCAGAGCUCAACACAGCGUGGCAAAGUGGCUGUGGCUAAACCGCCUCUCUGGAUUCCUCGUCACUCAGCAGGGCAUCUCUGAGGGAAACGCC, for which the self-cleavage was determined as 0.08.

For UGCGUAGGUGGUUUUCCCCUGGUAGUGCUAAGGGGGCCUGGAAGAUUGGACUGGGCAGAGCUCAACACAGCGUGGCAAAGUGGCUGUGGCUAGACUGCCUCUCUGGAUUCCUCGUCUCUCAGCAGGGCAUCUCUGAGAGAAAUGCC, the self-cleavage is 0.99.

On to UCCGUAGGUGGUUUUCCCCUGAUAGUGCUAAGGGGGCCUGGAAGUUUGGACUGGGCAGAGCUCAACACAGCGUGGCAGAGUGGCUGUGGCUAGACUGCCUCUCCGGAUUCCUCGUCACUCAACAGGGCAUCUCUGAGAGAAAUGCC, for which the self-cleavage was determined as 1.05.

Consider UGCGUAGGUGGUUUUCCCCUGAUAGUGCUUAGGGGGCCUGGAAGUUUGGACUGGGCAGAGCUCAACACAGCGUGGCAAAGUGGCUGUGGCUAGACUGCCUCUCUGGAUUCCUCGUCACUCAGCAGGGCAUCUCUGAGAGAGAUGCC, for which the self-cleavage was 0.59.

Regarding UGCGUAGGUGGUUUUCCCCUGAUAGUGCUAAGGGGGCCUGGAAGUUUGGACUGGGCAGUGCUCAACACAGCGUGGCAAAGUGGCUGUGGCUAGACUGCCUCUCUGGACUCCUCGUCACUCAGCAGGGCAUCUCUGAGAGAAAUGCC, the self-cleavage worked out at 0.85.

For the variant UGCGUAGGUGGUUUUCCCCUGGUAGUGCUAAAGGGGCCUGGAAGUUUGGACUGGGCAGAGCUCAACACAGCGUGGCAAAGUGGCUGUGGCUAGACUGCCUCUCUGGAUUCCUCGUCACUCAGCAGGGCAUCUCUGAGAGAAAUGCC, the self-cleavage stood at 0.77.

For the variant UGCGUAGGUGGUUUUCCCCUGAUUGUGCUAAGGGGGCCUGGAAGUUUGGACUGGGCAGAGCUCAGCACAGCGUGGCAAAGUGGCUGUGGCUAGACUGCCUCUCUGGAUUCCUCGUCUCUCAGCAGGGCGUCUCUGAGAGAAAUGCC, the self-cleavage was 0.33.

Take UGCGUAGGUGGUUUUCCCCUGAUAGUGCUGAGCGGGCCUGGAAGUCUGGACUGGGCAGAGCUCAACACAGCGUGGCUAGGUGGCUGUGGCUAGACUGCCUCUCUGGAUUCCCCGUCACUCAGCAGGGCAUCUCUGAGAGAAAUGCC: the self-cleavage stood at 0.

For UGCGUAGGUGGUUUUCCCCUGAUAGUGCUUAGGGGGCCUGGAAGUUUGGACUGGGCAGAGCCCAACACAGCGUGGCAAAGUGGCUGUGGCUAGACUGCCUCCCUGGAUUCCUCGUCACUCAGCAGGGCAUCUCUGAGAGAAAUGCC, the self-cleavage amounted to 0.

On to UGCGUAGGUGGUUUUCCCCUGAUAGUGCUAAGGGGGCCUGGAAGUUUGGUCUGGGCAGAGCUCAACACAGCGUGGCAAAGUGGCUGUGGCUAGACUGCCUCUCUGGAUUCCUCGUCACUAAGCAGGGCAUCUCUGAGAGAAAUGCC, for which the self-cleavage came to 0.86.

For UCCGUAGGUGGUUUUCCCCUGGUAGUGCUAAGGGGGCCUGGAAGUUUGGACUGGGCAGGGCUCAACACAGCGUGGCAAAGUGGCUGUGGCUAGACUGCCUCUCUGGAUCCCUCGUCACUCAGCAGGGCAUCUCUGAGAGAAAUGCC, the self-cleavage was determined as 0.

Consider UCCGUAGGUGGUUUUCCCCUGAUAGUGCUAAGGGGGCCUGGAAGUUUGGACUGGGCAGAGCUCAACACAGCGUGGCAAAGUGGCUGGGGCUAGACUGCCUCUCUGGAUUCCUCGUCACUCAGCAGGGCAUCUCUGAGAGAAAAGCC, for which the self-cleavage came out at 0.38.

Take UCCGUAGGUGGUCUUCCCCUGAUAGUGCUAAGGGGGCCUGGAAGUUUGGACUGGGCAGAGCUCAACACAGCGUGGCAAAGUGGCUGUGGCUAGACUGCCUCUCUGGAUUCCUCGUCACACUGCAGGGCAUCUCUGAGAGAAAUGCC: the self-cleavage came out at 0.53.

Consider UGCGUAGGUGGUUUUCCCCUGAUAGUGCUAAGGGGGCCUGGAGGUUUGGACUGGGCAGAGCUCAACACAGCGUGGCAAAGUGGCUGUGGCUAGACUGCCUCUCUGGAUUCCUCGUCACUCAGCUGGGCGUCUCUGAGAGAAAUGCC, for which the self-cleavage stood at 1.02.

As for UGCGUAGGUGGUUUUCCCCUGAUAGUGCUAAGGGGGCCUGGAAGUUUGGACUGGGCAGAGCUCGACACAGCGUGGCUAAGUGGCUGUGGCUAGACUGCCUCUCUGGAUUCCUCGUCACUCAGCGGGGCAUCUCUGAGAGAAAUGCC, the self-cleavage worked out at 0.27.

As for UCCGUAGGUGGUCUUCCCCUGAUAGUGCUAAGGGGGCCUGGAAGUUUGGACUGGGCAGUGCUCAACACAGCGUGGCAAAGUGGCUGUGGCUAGACUGCCUCUCUGGAUUCCUCGUCACUCAGCAGGGCAUCUCUGAGAGAGAUGCC, the self-cleavage was found to be 0.31.

As to UGCGUAGGUGGUUUUCCCCUGAUUGUGCUAAGGGGGCCUGGAAGUUUGGACUGGGCAGAGCUCAACACAGCGUGGCUAAGUGGCUGUGGCUAGACUGCCUCUCUGGAUUCCUCGUCACUCAGCAGGGCAUCUCUGAGAGAAAUGCC, the self-cleavage is 1.49.

As to GACGCAGGUGGUUUUCCCCUGUUAGUGCUAAGGGGGCCUGGAAGUUUGGACUGGGCAGGGCUCAACACAGCGUGGCAAAGUGGCUGUGGCUAGACUGCCUCUCUGGAUUCCUCGUCACUCAGCAGGGCAUCUCUGAGAGAAAUGCC, the self-cleavage came to 0.43.

Take UGCGUAGGUGGUUUUCCCCUGAUAGUGCUAAGGGGGCCUGGAGGUUUGGACUGGGCAGAGCUCAACACAGCGUGGCAAAGUGGCUGUGGCUAGACUGCCUCUCUGGAUUCCUCGUCACUCAGCAGGGCAUCUCCGAGAGAAAUGCC: the self-cleavage was found to be 0.33.

As to UGCGUAGGUGGUUUUCCCCUGAUAGUGCUGAGGGGGCCUGGAAGUUUGGACUGGGCAGAGCUCAACAAAGCGUGGCAAAGUGGCUGUGGCUAGACUGCCUCUCUGGAUUCCCCGUCACUCAGCAGGGCAUCUCUGAGGGAAAUGCC, the self-cleavage was found to be 0.38.

Regarding UGCGUAGGUGGUUUUCCCCUGAUAGUGCUAAGGGGGCCUGGAAGUUUGGUCUGGGCAGAGCUCAACACAGCGUGGCAAGGUGGCUGUGGCUAGACUGCCUCUCUGGAUUCCUCGUCACUCUGCAGGGCAUCUCUGAGAGAAAUGCC, the self-cleavage was found to be 0.69.

For UGCGUAGGUGGUUUUCCCCUGGUAGUGCUAAGGGGGCCUGGAAGUUUGGACUGGGCAGAGCUCAACACAGCGUGGCGAAGUGGCUGUGGCUAGACUGCCUCUCUGGAUUCCUCGUCACUCAGCAGGGCAUCUCUGAGAGAAAUGCC, the self-cleavage came to 0.

With UCCGUAGGUGGUUUUCCCCUGAUAGUGCUAAGGGGGCCAGGAAGUUUGGACUGGGCAGAGCUCAACACAGCGUGGCAAAGUAGCUGUGGCUAGACUGCCUCUCUGGAUUCCUCGUCACUCAGCAGGGCAUCUCUGAGAGAAAUGCC, the self-cleavage was found to be 1.65.

Regarding UGCGUAGGUGGUUUUCCCCUGUUAGCGCUAAGGGGGCCUGGAAGUUUGGACUGGGCAGAGCUCAACACAGCGUGGCAAAGUGGCUGUGGCUAGACUGCCUCUCUGGAUUCCUCGCCACUCAGCAGGGCACCUCUGAGAGAAAUGCC, the self-cleavage was found to be 1.31.

For UGCGUAGGUGGUUUUCCCCUGAUAGUGCUAAGGGGGCCUGGAGGUUUGGACUGGGCAGAGCUCAACACAGCGUGGCAAAGUGGCUGUGGUUAGUCUGCCCCUCUGGAUUCCUCGUCACUCAGCAGGGCACCUCUGAGAGAAAUGCC, the self-cleavage is 0.12.

Regarding UGCGUGGGUGGUCUUCCCCUGAUAGUGCUAAGGGGGCCUGGAAGUUUGGACUGGGCAGAGCUCAACACAGCGUGGCAAAGUGGCUGUGGCUAGACUGCCUCUCUGGAUUCCUCGUCACUCAGCAGGGCAUCUCUGAGAGGAAUGCC, the self-cleavage stood at 0.71.

For GACGUAGGUGGUUUUCCCCUGAUAGUGCUAAGGGGGCCUGGAAGUUUGGACUGGGCAGAGCUCAACACAGCGUGGCAAAGUGGCUGUGGCUAGACUGCCUCUCAGGGUUCCUCGUCACUCAGCAGGGCAUCUCUGAGAGAGAUGCC, the self-cleavage was found to be 1.21.

Consider UGCGUAGGUGGUUUUCCCCUGGUAGUGCUAAGGGGGCCAGGAAGUUUGGACUGGGCCGAGCUCAACACAGCGUGGCAAAGUGGCUGUGGCUAGACUGCCUCUCUGGUUUCCUCGUCACACAGCAGGGCAUCUCUGAGAGAAAUGCC, for which the self-cleavage amounted to 0.
